Measurements: PubChem BioAssay AID1963576 (National Center for Advancing Translational Sciences (NCATS), 2024)
The campaign covered roughly 46,000 compounds. About 60 (0.1%) were called active. Not shown: some 3% with an inconclusive outcome. The call rests on the fitted dose curve; in most records, active means well fitted inhibition curve with a large enough effect; inconclusive means small, poorly fitted or top-dose-only effect; inactive means no such curve, though single readings can be large or run the other way. Some of the results follow.

Assay: Primary qHTS assay for Inhibitors of ovarian cancer metastasis using an organotypic tumor microenvironment (TME) model. Further: nearly all actives have a fitted effect of over 65% in size.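 On activity change, negative = inhibition: plate controls were DMSO wells for no effect and tomatine positive control wells for full effect.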
Conditions: SKOV3ip1-GFP adhesion/invasion on 3D omental model, fluorescence; series mostly up to 45.8 µM; activity change, negative = inhibition: at the top concentration
Procedure, shortened: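 A 3D layer of primary human omental fibroblasts, mesothelial cells, fibronectin and collagen I, grown 48 hr, received SKOV3ip1-GFP cells in serum-free medium plus compounds at 0.36-46 umol/L. After 2 hr RT and 16 hr 37 C, fixed adherent GFP cells were counted; normalized to DMSO and tomatine.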

Row | SMILES | activity change, negative = inhibition | outcome
1 | CCc1ccccc1N1CC(c2nc3ccccc3n2CCCOc2ccc(Cl)cc2)CC1=O (configuration not stated) | inactive: -7.38% | –
2 | COc1ccc(C(=O)Nc2cc3c(cc2C(=O)c2ccccc2Cl)OCCO3)cc1 | – | inactive
3 | Cc1cc(Cl)ccc1NC(=O)c1cccc(NC(=O)N2CCSc3ncccc32)c1 | inactive: -4.73% | –
4 | O=C(CSC1=Nc2ccccc2C2=NC(CCC(=O)NC3CCCCC3)C(=O)N12)Nc1cccc(C(F)(F)F)c1 (configuration not stated) | inactive: -20.6% | –
5 | COc1ccc(CNC(=O)c2cnc3sc(N4CCOCC4)nn3c2=O)cc1 | inactive: 3.39% | –
6 | COc1cc(OC)c(NC(=O)N2CCSc3ccccc32)cc1Cl | inactive: -0.759% | –
7 | O=C(CCOc1ccccc1)N(Cc1cccnc1)c1nc2c(F)cc(F)cc2s1 | – | inactive
8 | Nc1nnc(SCC(=O)Nc2ccc(Cl)cc2)s1 | inactive: 10.3% | –
9 | CCOc1ccc(NC(=O)C(CC)n2c(=O)c(-c3ccccc3NC(C)=O)nc3ccccc32)cc1 (configuration not stated) | inactive: -0.582% | –
10 | Cc1ccc(CNC(=O)Cn2cc(S(=O)(=O)Cc3ccccc3Cl)c3ccccc32)cc1 | inactive: -16.2% | –
11 | COc1ccccc1OCCSc1nc(-c2ccc(C(C)(C)C)cc2)nc2cc(=O)[nH]n12 | inactive: -7.41% | –
12 | CCOc1ccc(C(=O)N2CCC(c3nnc(-c4ccccc4OC)o3)CC2)cc1 | inactive: -4.77% | –
13 | O=C(CCc1ccccc1)NCc1nc2cccnc2n1Cc1ccc(F)cc1 | inactive: 0.148% | –
14 | N#Cc1ccccc1CN1C(=O)c2ccccc2Sc2ccc(C(=O)OCc3ccco3)cc21 | inactive: -18.2% | –
15 | CCNC(=O)CC1C(=O)N(c2ccc(F)cc2)C(=O)N1CCOC (configuration not stated) | inactive: 4.6% | –
16 | COc1ccccc1CNC(=O)c1ccc(Cn2c(SCc3ccccc3)nc3cccnc32)cc1 | inactive: 4.29% | –
17 | Fc1ccc(-n2ncc3c(NC4CCCCCC4)ncnc32)cc1 | inactive: -0.55% | –
18 | CCOC(=O)c1c(NC(=O)CCCOc2ccccc2C)sc2c1CCC(C)C2 (configuration not stated) | inactive: 2.49% | –
19 | CCOc1ccc(NC(=O)CCc2c(C)nc3nc(C)nn3c2C)cc1 | inactive: 4.22% | –
20 | COC(=O)C(CCSC)NC(=O)C1CCN(c2ncnc3c2nc2n3CCCCC2)CC1 (configuration not stated) | inactive: 6.07% | –
21 | CCOC(=O)c1c(C)oc2nc(C)nc(NCCCN3CCN(c4ccccc4)CC3)c12 | inactive: -3.81% | –
22 | CCOc1ccc(OCC)c(NC(=O)c2cc(S(=O)(=O)N3CCCC3)cn2C)c1 | inactive: 1.24% | –
23 | COc1ccc(NC(=O)CN2CCN(Cc3ccccc3)S2(=O)=O)c(OC)c1 | inactive: -3.95% | –
24 | CCOC(=O)N1CCc2c(sc3c2c(=O)n(-c2ccccc2)c(=O)n3CC(=O)Nc2ccc(OC)cc2OC)C1 | inactive: -2.15% | –

Row | SMILES | activity change, negative = inhibition | outcome
25 | O=C(Nc1ccc(Cl)cc1)c1ccc2c(c1)N(Cc1ccccc1)CCS2 | inactive: 9.01% | –
26 | O=c1c(-c2ccc(O)cc2)coc2cc(OC3O[C@H](CO)[C@H](O)[C@H](O)[C@H]3O)cc(O)c12 (some centres not stated) | inactive: -37.6% | –
27 | CC(C)c1ccc(NC(=O)CN2C(=O)C3(SCC(=O)N3c3ccc(F)cc3)c3ccccc32)cc1 (configuration not stated) | inactive: -0.358% | –
28 | Cc1ccc(N2CCn3c2nc2c3c(=O)n(Cc3cccc(Cl)c3)c(=O)n2C)cc1C | inactive: 4.17% | –
29 | COc1ccc(NC(=O)Cn2c(=O)n(Cc3ccco3)c(=O)c3sc4ccccc4c32)cc1Cl | – | inactive
30 | CCOc1ccccc1CNC(=O)CCc1cn(C)c2ccccc12 | – | inactive
31 | Cc1nc(CC(=O)Nc2ccc(C(N)=O)cc2)cs1 | inactive: 3.89% | –
32 | CCSC1=NC2(CCN(C(=O)NC3CCCCC3)CC2)N=C1c1ccc(OC)cc1 | inactive: 0.229% | –
33 | CCCOc1ccc(CC2C(=O)Nc3ccc(Br)cc32)cc1 (configuration not stated) | inactive: -25.5% | –
34 | CCN(C(=O)CSc1nc2ccccc2nc1Cc1ccccc1OC)c1ccccc1 | inactive: -11.8% | –
35 | O=C(CN1C(=O)CCSc2ccc(S(=O)(=O)N3CCCC3)cc21)Nc1ccccc1Cl | inactive: 3.18% | –
36 | CCCC12CN3CC(CCC)(CN(C1)C3c1c[nH]c3ccc(OC)cc13)C2=O (configuration not stated) | inactive: 0.649% | –
37 | CCOCCCNC(=O)C(c1ccc(OC)cc1)N(Cc1cccs1)C(=O)CNC(C)=O (configuration not stated) | inactive: 16.5% | –
38 | CCc1cccc(NC(=O)CN2C(=O)COc3ccc(S(=O)(=O)N4CCC(C)CC4)cc32)c1 | – | inactive
39 | CC(=O)Nc1ccc(S(=O)(=O)NC2(C(F)(F)F)C(=O)Nc3c2c(=O)[nH]c(=O)n3-c2ccc(C)cc2)cc1 (configuration not stated) | inactive: -0.347% | –
40 | Cc1ccc(C(=O)CC2(O)C(=O)N(CCc3ccccc3)c3ccc(Br)cc32)cc1 (configuration not stated) | inactive: -2.27% | –
41 | O=c1oc2ccc(Cl)cc2cc1-c1nc(-c2cccs2)no1 | inactive: -8.45% | –
42 | Cc1ccc(CCNC(=O)c2cc3ccccn3n2)cc1 | – | inactive
43 | COc1cccc(-n2c(C)nc3c(cnn3-c3ccc(C)c(C)c3)c2=O)c1 | – | inactive
44 | Cc1ccc(Cn2c(C)c3cnn(CC(=O)N4CCN(c5cc(C)ccc5C)CC4)c(=O)c3c2C)cc1 | – | inactive
45 | COc1ccc(NC(=O)Cn2c(=O)n(Cc3ccccc3Cl)c(=O)c3cc(OC)c(OC)cc32)cc1 | – | inactive
46 | CCOC(=O)c1cc2c(=O)n3ccccc3nc2n(CCCOC)c1=NC(=O)c1cc2ccccc2o1 | inactive: 0.314% | –
47 | Cc1ccc(-n2nc3c(N4CCCC(C(=O)NCc5ccccc5C)C4)nnc(C)c3c2C)cc1 (configuration not stated) | inactive: -1.11% | –
